“And” between values parts separate entries of the source, which are not always exact repeats. Equal entries are not always repeated. In all, about 360,000 compounds went through this assay and about 11,000 (3.1%) were called active. Inconclusive means that the source gave no clear call. Such entries were picked first, then a sample of the others. The call rests on the fitted dose curve; in most records, active means well fitted inhibition curve with a large enough effect; inconclusive means small, poorly fitted or top-dose-only effect; inactive means no such curve, though single readings can be large or run the other way. Potencies beside an inconclusive call are fits to weak or partial responses and may not hold up.
Each compound was assayed against Schistosoma mansoni thioredoxin glutathione reductase (TGR) (UniProt Q962Y6) (assay: qHTS Assay for the Inhibitors of Schistosoma Mansoni Peroxiredoxins). Conditions: purified TGR, DTNB reduction, TNB absorbance 405 nm; activity change, negative = inhibition: at 114 µM (top of the series) unless noted.
Outline: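 Kinetic colorimetric format: TGR-catalysed, NADPH-driven DTNB reduction monitored via TNB absorbance. Enzyme dispensed at 20 nM; compound exposure 15 min at room temperature before reaction start.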
Further: nearly all actives have a fitted effect of over 60% in size.
On the % scale 0 is the no-effect control and ±100 the full control effect; potency means the concentration at half of the fitted maximal effect; tags describe the fitted curve by direction and shape.

Structure (SMILES) | Potency | activity change, negative = inhibition
C[C@@H]1O[C@@H](O[C@H]2[C@H](O)[C@@H](O)[C@H](Oc3c(-c4ccc(O)c(O)c4)oc4cc(O)cc(O)c4c3=O)O[C@@H]2CO)[C@H](O)[C@H](O)[C@H]1O | inconclusive: 39.8 µM [inhibitor, partial curve] | –
COc1ccc([C@H]2CC(=O)C=C(c3ccc(OC)nc3)C2)cc1 | inconclusive: 79.4 µM [inhibitor, partial curve] | –
O=C(Nc1cccc2ccccc12)c1ccc([N+](=O)[O-])o1 | inconclusive: 44.7 µM [inhibitor, partial curve] | –
O=C(CCl)c1ccc(Cc2ncc(C(F)(F)F)cc2Cl)s1 | active: 8.91 µM | –
O=C(CCCn1nnnc1CN1CCOCC1)N1CCC(c2ccccc2F)C1 (stereo unspecified) | inconclusive: 44.7 µM [inhibitor, partial curve] | –
S=C(Nc1ccc(Cl)cc1)NC1CC2CCCC(C1)N2C1CC1 (stereo unspecified) | inconclusive: 35.5 µM [inhibitor, partial curve] | –
O=C(Nc1ccc(C(F)(F)F)cc1)C1(c2ccccc2)CC1 | – | inactive: -0.45%
O=C(c1ccccc1)C(CCC(CN1CCOCC1)C(=O)c1ccccc1)CN1CCOCC1 (stereo unspecified) | active: 8.91 µM | –
COC12C(COC(N)=O)C3=C(C(=O)C(C)=C(N)C3=O)N1CC1C2N1C (stereo unspecified) | active: 12.6 µM | –
CCOC(=O)N1CCC(NC(=O)CSCc2nc(-c3sccc3C)oc2C)CC1 | active: 39.8 µM | –
COc1ccc(C(C(=O)NCc2ccccc2)N(C(=O)Cn2nnc3ccccc32)c2cccc(OC)c2)cc1 (stereo unspecified) | – | inactive: 6.33%
CN1C(=O)N(CC(=O)N2CCN(S(=O)(=O)c3ccc(Cl)s3)CC2)C(=O)C12CCCCC2 | active: 44.7 µM | –
Cn1ccc2cc(S(=O)(=O)N3CCCC(C(=O)NCc4ccccc4)C3)ccc21 (stereo unspecified) | – | inactive: -1.73%
COc1ccc(OC)c(C2Nc3c(Cl)ccc(C(=O)O)c3C3C=CCC32)c1 (stereo unspecified) | active: 1.58 µM | –
COc1ccc(C(CC(=O)c2ccc(C)cc2)C(C#N)C#N)cc1OC (stereo unspecified) | inconclusive: 1.26 µM [inhibitor, full curve] | –
S=c1nc(-c2ccccc2)n(CCN2CCOCC2)c2c1CCCC2 | inconclusive: 44.7 µM [inhibitor, partial curve] | –
O=C(/C=C/c1ccc(F)cc1)NC(=S)NNC(=O)c1cccnc1 | – | inactive: -1.91%
CCOC(=O)c1n[nH]n2c1nc(=S)c1ccccc12 | active: 11.2 µM | –
Oc1ccc(-c2cc(-c3ccc(O)cc3)nc(-c3ccccc3)n2)cc1 | – | inactive: 4.34%
C=CCC1C=C(Cc2ccccc2)CC(CC=C)N1 (stereo unspecified) | inconclusive: 89.1 µM [inhibitor, single point] | –
COc1ccc(Nc2nc3c(c(=O)n(C)c(=O)n3C)n2CCO)cc1 | inconclusive: 1.58 µM [inhibitor, full curve, poor fit] | –
Cc1cccn2c(=O)c(/C=N/O)c(N3CCOCC3)nc12 | inconclusive: 89.1 µM [inhibitor, single point] | –
C=CCc1ccccc1OCC(O)CN1CCN(Cc2ccc3c(c2)OCO3)CC1 (stereo unspecified) | inconclusive: 28.2 µM [inhibitor, full curve, poor fit] and inconclusive: 50.1 µM [inhibitor, partial curve] | –
CCCc1c(C(=O)NNc2ccc(C)cc2)cnn1-c1ccccc1 | inconclusive: 44.7 µM [inhibitor, partial curve] | –

Structure (SMILES) | Potency | activity change, negative = inhibition
C=CCOC(=O)C1=C[C@H](c2cn(C(C)=O)c3ccccc23)C[C@H](OCCCCO)O1 | inconclusive: 56.2 µM [inhibitor, partial curve] | –
CC(=O)N1c2ccc(S(=O)(=O)N3CCCC(C(=O)NCc4ccccc4Cl)C3)cc2CC1C (stereo unspecified) | – | inactive: 1.5%
Cn1c(=O)n(C)c2cc([N+](=O)[O-])c(N3CCNCC3)cc21 | inconclusive: 39.8 µM [inhibitor, partial curve] | –
COc1cc(/C=C/C(=O)CC(=O)/C=C/c2ccc(O)c(OC)c2)ccc1O | inconclusive: 39.8 µM [inhibitor, partial curve] | –
COc1ccc(NS(=O)(=O)c2cccc(C(=O)NCc3ccccc3CN3CCCC3)c2)cc1 | – | inactive: -2.45%
Cc1ccc(C(=O)OCN2C(=O)c3ccccc3C2=O)o1 | – | inactive: -15.6%
COc1ccc(OC)c(CNCc2ccc3c(c2)OCO3)c1 | inconclusive: 50.1 µM [inhibitor, partial curve] | –
O=C(N/N=C/c1ccco1)c1ccc2nc[nH]c2c1 | inconclusive: 39.8 µM [inhibitor, partial curve] | –
COC(=O)Cn1c(SCc2ccccc2)nc2ccccc21 | – | inactive: 2.11%
CCNc1ccc(Br)cc(C(=O)/C=C/c2ccc(Cl)cc2)c1=O | active: 10 µM | –
Cc1csc(SCC(=O)Nc2cccc3nsnc23)n1 | inconclusive: 89.1 µM [inhibitor, single point] | –
COC(=O)c1[nH]c2cc(OC)ccc2c1NC(=O)CN1CCN(c2cccc(C)c2)C(C)C1 (stereo unspecified) | – | inactive: -21.9%
CC1CCN(C(=O)CSc2nnc(-c3cc4ccccc4cc3O)n2Cc2ccco2)CC1 | inconclusive: 50.1 µM [inhibitor, partial curve] | –
O=C(Nc1cccnc1)Nc1cccc(F)c1 | – | inactive: -19.8%
O=C(CC1C(=O)NCCN1Cc1cccc(Oc2ccccc2)c1)NCCCn1cccn1 (stereo unspecified) | inconclusive: 39.8 µM [inhibitor, partial curve] | –
CCN1CCN(C(=O)CS(=O)Cc2nc(-c3ccc(OC)cc3)oc2C)CC1 (stereo unspecified) | inconclusive: 39.8 µM [inhibitor, partial curve] | –
CC(C)(C)NS(=O)(=O)c1cc(C(=O)Nc2sccc2C#N)ccc1Cl | inconclusive: 56.2 µM [inhibitor, partial curve] | –
CCOC(=O)C1=C(O)/C(=C\c2ccc(OC)c(OC)c2)N=C1C | inconclusive: 28.2 µM [inhibitor, full curve, poor fit] | –
O=c1[nH]cnc2scc(-c3ccc(-c4ccccc4)cc3)c12 | – | inactive: -20.7%
COc1cc(C(C[N+](=O)[O-])c2c(C)cc3ccccn23)ccc1O (stereo unspecified) | active: 17.8 µM | –
CN(C[C@H](Cc1ccccc1)N(C[C@H](Cc1ccccc1)N(CC1(c2ccccc2)CC1)N=O)N=O)N=O | inconclusive: 50.1 µM [inhibitor, partial curve] | –
COc1ccc(OC)c(NC(=O)c2c(NC(=O)c3ccco3)sc3c2CCC3)c1 | inconclusive: 89.1 µM [inhibitor, single point] | –
COc1ccc(C2C(C(=O)Nc3cccnc3)=C(C)Nc3nc(-c4cccs4)nn32)cc1 (stereo unspecified) | – | inactive: -5.4%
COc1ccccc1CNc1nc(C)c(C(=O)N(C)C)s1 | – | inactive: 4.56%

Structure (SMILES) | Potency | activity change, negative = inhibition
CNC(=O)c1sc(-c2cccs2)nc1C | – | inactive: -1.96%
CCN(CC)c1ncn(Cc2c(Cl)cccc2Cl)c2ncnc1-2 | – | inactive: 5.28%
COc1cccc(C(=O)Nc2c(F)c(F)c(F)c(F)c2F)c1 | – | inactive: -19.8%
O=C1C2C3C=CC(CC3)C2C(=O)N1c1ccc([N+](=O)[O-])cc1 (stereo unspecified) | active: 20 µM | –
CN(CC(=O)N1CCN(Cc2ccccc2)CC1)C(=O)Cc1cccc2ccccc12 | inconclusive: 39.8 µM [inhibitor, partial curve] | –
CC[n+]1ccc2cc(OC)c(OC)cc2c1Cc1ccc(OC)c(OC)c1 | inconclusive: 8.91 µM [inhibitor, partial curve] | –
NC1=C([N+](=O)[O-])C(c2ccc3c(c2)OCO3)c2c(c3ccccc3oc2=O)O1 (stereo unspecified) | inconclusive: 50.1 µM [inhibitor, partial curve] | –
Cc1ccc(-c2nnn(CC(=O)N(Cc3ccc(F)cc3)C(C(=O)NC3CCCC3)c3ccncc3)n2)o1 (stereo unspecified) | inconclusive: 39.8 µM [inhibitor, partial curve] | –
Cn1c(=O)c2cn(-c3ccc4c(c3)OCCO4)cc2n(C)c1=O | inconclusive: 44.7 µM [inhibitor, partial curve] | –
Cn1cccc1/C=N/NC(=O)c1cccs1 | – | inactive: -11%
Cc1ccc(SCc2cc(=O)c3c(=O)n(-c4ccccc4)[nH]c3[nH]2)cc1 | – | inactive: -34.6%
CS(=O)(=O)c1nc(S(=O)(=O)c2ccc(Cl)cc2)c(NCCCN2CCCC2=O)s1 | inconclusive: 89.1 µM [inhibitor, partial curve] | –
CC(C)(C)c1ccc(C(=O)C=[N+]=[N-])cc1 | inconclusive: 35.5 µM [inhibitor, partial curve] | –
O=C(Nc1ncccc1O)C1CCN(S(=O)(=O)c2ccc3ccccc3c2)CC1 | inconclusive: 50.1 µM [inhibitor, partial curve] | –
O=C(NC(=S)Nc1cccc(S(=O)(=O)NC2=NCCC2)c1)c1cc(-c2ccco2)nc2ccccc12 | active: 12.6 µM | –
Fc1cc(F)c(F)c(SCCc2ccncc2)c1F | inconclusive: 50.1 µM [inhibitor, partial curve] | –
C[C@H](NC(=O)c1[nH]cnc1C(=O)Nc1nccs1)c1ccccc1 | inconclusive: 12.6 µM [inhibitor, single point] | –
COc1ccc(CN2CCNC(=O)C2CC(=O)NCCN2CCCCC2=O)c(F)c1 (stereo unspecified) | inconclusive: 44.7 µM [inhibitor, partial curve] | –
O=C(CCc1nc2ccccc2s1)NCc1ccccc1F | inconclusive: 70.8 µM [inhibitor, single point] | –
O=C(Nc1ccc(F)c(Cl)c1)c1cccnc1 | – | inactive: -18.7%
O=C(Nc1ccc(S(=O)(=O)NCc2ccco2)cc1)c1cccc(F)c1 | inconclusive: 22.4 µM [inhibitor, full curve] | –
O=C1/C(=C/c2ccccc2[N+](=O)[O-])COc2ccccc21 | inconclusive: 35.5 µM [inhibitor, full curve] | –
Cc1c(C(=O)N(C)C)sc(NC(=O)c2cc([N+](=O)[O-])cc([N+](=O)[O-])c2)c1C#N | inconclusive: 89.1 µM [inhibitor, single point] | –
